# Laboratory results as given in the supplement of paper PMC10681739.
# ± gives the standard deviation of the averaged measurements. The full ranking holds about 4,000 sequences; the median of “arbitrary fluorescence units” is about 830, and the highest 2% start at about 6,500. This part holds few or none of the hits.
# Biological target: RUNX1 (UniProt Q01196)
# Assay: RUNX1 binding intensity (PBM fluorescence), RUNX1 alone (arbitrary fluorescence units); higher = stronger binding
# Settings: RUNX1 concentration 2 nM; ETS1 concentration 0 nM
# Description: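 gcPBM on 36-bp genomic-derived probes (partner site mutated) containing one RUNX1 site and no ETS1 site. Recombinant human RUNX1 (2 nM) was incubated alone or with ETS1 (25 nM) and detected by anti-RUNX1 antibody fluorescence. Values are medians over 4 replicate spots (not normalised). The probes sit in constant array flanks that are not printed.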
# 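Further: Full-length recombinant human RUNX1 bound to double-stranded DNA microarray spots, detected with an Alexa488-labelled secondary antibody after the anti-RUNX1 primary, read as scanned spot fluorescence.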
# Sequence of UniProt Q01196 (Q01196 whole entry): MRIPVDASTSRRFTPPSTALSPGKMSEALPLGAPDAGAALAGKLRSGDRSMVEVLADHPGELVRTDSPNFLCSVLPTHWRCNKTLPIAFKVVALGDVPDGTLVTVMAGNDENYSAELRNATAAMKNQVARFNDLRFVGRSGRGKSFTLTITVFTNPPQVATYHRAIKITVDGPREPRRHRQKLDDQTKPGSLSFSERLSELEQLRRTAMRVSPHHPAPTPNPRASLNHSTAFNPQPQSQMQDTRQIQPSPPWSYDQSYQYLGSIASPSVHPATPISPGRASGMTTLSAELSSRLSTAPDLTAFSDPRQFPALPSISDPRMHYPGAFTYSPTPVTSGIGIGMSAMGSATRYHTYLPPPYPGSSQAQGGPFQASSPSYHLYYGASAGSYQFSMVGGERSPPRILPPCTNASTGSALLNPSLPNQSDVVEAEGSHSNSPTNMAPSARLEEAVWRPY
row,Sequence,RUNX1 binding intensity
1,AGCGTCTATCTCCTCCGACTGCGGCGCGGCTGATAC,712
2,GAAGGCAGCCCGGTCACCTTTCTTGGCCCGCAGAGT,673
3,TCGGCACTGAAGGGAGGCACGAAACCGCGAGTGGAG,825
4,TGCAGGGAGCGCCCACAAAGGGAGGAGGTCGCCGGC,713
5,GCGGCCGGGATCTGGAGGGTGAGCGCTGTGGGCAGC,663
6,AGGCGCGGTATTAGGCGGACGAGCGAAAGTGGCTGG,777
7,GTTGCACGAAACGATGGGTTTTGTGGTATGAACTGC,829
8,GTCCCCGCGGTGTCACAGCAATAGCCGTTCTTTGAT,920
9,CGAGAAGGAGGTGGTCAAGGAACGAAAGCCGGGAGG,753
10,GCGGGAGTGCGGTCTGTGCCGTTCGGGCCAGGAGTT,1340
11,GCCCCCAGCCCCGCAGCCTGGCTTTCTTCATGCTCG,933
12,CCCCTTCATACGCCTCTCTCTCACCGCGCCGCTCCC,2190
13,TCCCCTCTACAGCCACAAGAATGGGAACTGGCTTGT,808
14,TTGTACTCTGTGGTTTCATTTCGTGCCCGTAAATGC,3260
15,CCCGACTGCCGCCGCTGGTGGCCACCCGCAGGTAGT,775
16,TTATGTGGTAGGTGAGGTAAAGAAGGCAGTGGAGAA,807
17,CGATTCTGGATTGGTCCAATTCCAGCGCCGCAGCCC,830
18,GACAGTTTTCGGGCCTAGTTTGCGGCTGCTCCTGCC,891
19,CGACGCGCGGCAGGAGTTCGCGCGACGACCGCGGGG,692
20,ACTCTGCGGCCCAGCTGCTTCTGTGCACAGGCAATA,791
21,GAGAACTTTCGGTGCGCTCCCCGGGACTGCGGTCCC,697
22,CTCCAAGCCCACAGAGCACCCCTTGCTGCCCGGACA,960
23,GGCGCCGCGGCAATCTGTACACACCGCAGCGCGGCC,837
24,GGCGGTGACCGTAAGAGCTGAGTCACCGCAGGCGAC,765
25,CACCCGCCTCTACCCGCGGCCCCGGGAGCTCCTTAA,1090

row,Sequence,RUNX1 binding intensity
1,CCTTAGCACAGACCACCATCTACGGGAATTCCTAAG,912
2,CAAACATGTGGTCTCCGAGCACGAAAATGCTAAAAT,816
3,GAGGCCGCAAGGAGACAGAACTACACCTCCTCCGTC,823
4,AGTGAGCTTCGTCCTGAGGCCTGAGGCAACCACAGG,669
5,CCCTGGACGGGAATCGGCGGCCAGATCCGCAAGCCC,718
6,CCTGGGGGGCCGTAAGCCCCGCTGCGGCCCCAGCCC,830
7,AGAAACCGCTGGGCGGAGCAGCGGGACGAAGCTGCA,667
8,TAGGGGCTGCGGGTCCGGGCGAAAGTGGGGCAGGCG,634
9,CGGCGCGGCGCACGTTGCTGCGGTAGGACGTGCCCG,874
10,AATATGCTGTATGTCATGCTTAAAAAGCCACAAAAC,832
11,ATCAGTCAACCTCCCCCACTCCCTCCCACAAAGAAA,1220
12,CCTGCGGGGGGTGCGTGGGCGGGACTCCCGGCTCCT,915
13,CTTTGTGGCTTTTTCTTGGTAGTTGGGCAGGGAGCC,1720
14,GGCCTCGGCCACATACGGGTTCCACCGCAGATTCGG,792
15,CTCCCCCAGCACAGCCTCTGCCACCGCTGCCTTTCC,1190
16,CTGCGGCGGGGGCTGACATCACAGCAAGGACACTGT,744
17,ACTTGACTGCCTGTGGGGTGTGTGGTGTCTGCACTT,822
18,GCCCCCAACTCCCACACACAGCCCCTTCGTCCTCCC,1400
19,CCAAGGCTATGCTTTTTTTTGGCAAGCCACATCCAA,740
20,CCCACTCCACTGCCGCCACCGCCGCAGCCGCCGCTG,1230
21,TCGAGAAACCGCCCCCGCCTCAGCAAGGGGTAGGCG,773
22,CTGCAGATGCATCTCCTTTTTGTGGTAGCAAGCGTG,799
23,CCGGAGGTTGCGGGAGCTGAGGGATGAAACAGGGAC,936
24,ATAAGGAGGCCGGCGCACTGATTTGTGGTTGTTGCC,720
25,TTGGAGGCGGCAACAGGCACCGAAAGCGGTGGAAGT,734

row,Sequence,RUNX1 binding intensity
1,AAAGGGACGTTCGCGGGAGGTCAAAACCACCGGGGC,732
2,CTGACGCATTCCCGGCCTTTGCGGTTGATCGGTCAT,3000
3,TGCGAGCACCCGGGAGCCGCTTGCGGGCTCCCGGAG,641
4,CTGGCCGTGGCGTACGGGAGCTGTGGGGCCGTCCCC,728
5,AGGGGCTTGTGGGAACCGGCCGAAACCGGCTGTGGA,639
6,GTGAACTCCCTCCCCCACTGCCTATTTTTACCGCAG,1930
7,CAGGCCTGTGATCTCCTCTGAGTGGTTTTCTTGGCC,747
8,GATCTTGCTGCAACCCCCCGAGACAACCACCGAACA,795
9,GGCGCTAGGCCTCCGGATCGCGGTGGGCGGAGTTCA,703
10,TCATGCTGCTCCCTGCCCAACCCGCAGTTCCGATAA,1240
11,TGCGCCTGCGGGAGGGAGCAGTGCCGGGTACGGTGC,769
12,CCAGCTGAAAGCCGGTCAGGGGGAACCGCGGCGGGG,730
13,TCAGAACTTGGTTTTGAGAGTTTACTGTTTTCTTGA,785
14,ACTGTGGTCAGACCAAAGGAAGAAGTTCCCAACCTC,943
15,TTTTTTGCGCCCGCTTCAAACATGGCGGTCAAGCCC,882
16,CAGTCCAGAATCCCACGCTCCCTAGCCCGCGGTGAG,760
17,GGCCTGAAGCGCTCTCGTTGGCCCTGCGGCGCTGGA,788
18,GTGGCTATGGGGAGTGGGGTGCGGTTTCTGCCGGGG,1430
19,GGTTCGCGGCTTACGGGACATTTGTACCGCAGGGGG,787
20,GACTGCGGCTCTTCCTCGGGCAGCTGAAGCGGCGCA,1070
21,CGGCCCCCGGGGTGGTTAGCGCTTACGGGGTCGAAG,714
22,CGCCTCGCCTCTTGCCGCCAGCGCCCGCAGGACCCG,1050
23,GACCCATTGCCTGGCTCAGGAGCCCACAGCCCTGGG,818
24,TGGGGTTTTCTGGGGAGAAACTTAGCCCTACCACAC,666
25,TGGATATACCCGCAGGTCCAGAATCGTTTTCGGACC,882

row,Sequence,RUNX1 binding intensity
1,CATCTCGGGAACGGACAGCAAGATCCCGCATTAACA,919
2,AAGGCTGTGGGTAAGGCGACATTGCCTGCCCCCGGG,737
3,TTCTCATTTGTGGGTATCTGACAACAACCTCCTCTC,1050
4,CTCTTTGTGGCTCCCGCGAGAGTCCGCCTTCGGCCG,1030
5,GGCCGTACGCCATCTTGCTGGTTTGCGGCCGGTCTT,771
6,GCCCCGCCCCCGGGCGCCCAGCCGCGGTCCCAGCGA,816
7,AACAAACCTGATGGGGTTCCCACCCGCAATCTTGTC,975
8,GGAACCCACATAATCCGCCAAGGGGTTCAGGTGCGA,871
9,TAGCCACTAACCTGAAACGTTAAACCACAGCTCCGT,1120
10,TGATGCACTTGCTGAGGGCCCGCATGTGGTAAACAC,695
11,ATTTTGCGGCCGCCGTAAAGCGCGTATGCGCGGCGT,865
12,AACACTATTCCCTTTCTTGCTGCCCACATTTTAACA,2580
13,GTCACCATTCCCGGGCCTCCGCGGTGTCCCCACCCC,1060
14,TGTCTCTCACCACAAAATCCACCTCCTATGATGTTT,3020 ± 950
15,CCGGGAAGGCGCAAGCAGCAGAGACGCCGCAAGGCC,644
16,CAAGGAGGCTCCCTGCGTGGGGCCGCAGAGCGAGTC,666
17,CACGGGGCGGTCAACCCCAGGAGGACATATCGCTTC,829
18,GGCCAAACCACTTTATCGTGGAGCCAATTGCCTCAG,861
19,CAACGACACCAAACCACCACCACTTGCTTGAATCTG,1010
20,AGCGCGAGGCCGCAGCGGGGAGTGACCGGGAGTGGC,675
21,GGATCGGCCTGCGGTGTGTCTCATTTGCTGTAGGTA,943
22,TGCTGCGAGCCACAAACATGGTGTCCGTCGGGCCCG,674
23,TCCTTAATGGTTTCGGCGGCAGGGACCGCAGCGACG,737
24,GTTCTTATGCTGTGGCTCGTTTGTGGTTACTGACAT,2360
25,TTGGTTTCAGTGGGTTTTGGCCAGCTCCCTTACCAG,730

row,Sequence,RUNX1 binding intensity
1,CGTGTTTTGTGGCTGTGTTCTGTCCAGTCAGTTGTT,947 ± 57
2,CTTACTATATTACCGCCGGTACACATGCGCCCGACA,965
3,CGAGAACGGCGCCACAGAGGAACCTGAAACAAGCCA,734
4,TCAGGAGCCGCGGTCGGGCGGGGCTTACGGGAGCAA,799
5,GATGTGGGCTTGCGCGCAAACAGCCCGTAAATGAGG,744
6,CTGCTGCGGGGAGTTGCTAGTACATGAAAAGAGGTC,812
7,GAGGTGGTACCGCAGGCCGCGTTGACCGAAAAGTAG,1110
8,CCAGGCGGGAACCGCAGTGTTCCAGGGACCGTTCTG,1320
9,GGGATCTGGGTTGTGGGGTGCAGGATCTGGGGTGCT,705
10,AGAAACACCCTGCCCAGCCACCTGACCACAAGGCAC,1280
11,CATTGTGGGCGCTGTAGTCCAGCTGGAACCTGTTTG,760
12,TACCATAAAACGTCCCTGGGGAAACCGCCCACTCCC,851
13,TACAGCACCGCATATGGCTGAGGGAGGAGCAAGGGA,664
14,ACTGCCGCAACTAGGGGCAGCTCTACTCCCGGTGCC,776
15,TCTGGATTGCCTGTGGGGCTCTCCCACAAGCAGTAC,690
16,AACCCTGAGACAGCCGCAGCCACTTGCTGGGTGAGG,775
17,CAGCACACACCGCACGGGGCGACAGCTTACGGGGGC,911
18,GTGCGTCCTTCAGTCTCACCTCCCTGCGGCGTGGGC,768
19,TTGCGCCGGGCGCCACTTTCGGTCCCCGTGGTCACG,768
20,GGGAGGGCCGAAGGCGGCTCTGCGGCAGCAAGCCCC,1220
21,AGCTCAATTTGCTGGCGTGTAACATGGCCACAAGGG,711
22,ACACAAACAGCAAGTGTTTGTGGTCCCTGCCTTTAG,772
23,GAGATTCTGTGGCTGGGTCTGTCTGTTTCGTGCTAG,810
24,CGGACCGAAAGTGCCCGAGGGCGGCCGCAGAACGGT,766
25,GGAGATGTGGGCGCCGAGAAGTGGAGCAGGGAGCGA,705
